This is one part of the list. Repeats are few or missing, and single values can be far off.
Key:
Experiment in all cases: cell count relative to DMSO control; melanoma cells; higher = more viable cells
Conditions in all cases: library dose: low library concentration; 72 h
MZ2-MEL = tested on: MZ2-MEL
MeWo = tested on: MeWo
RPMI7951 = tested on: RPMI7951
RVH-421 = tested on: RVH-421
SkMel28 = tested on: SkMel28
SkMel2 = tested on: SkMel2
SkMel30 = tested on: SkMel30
SkMel5 = tested on: SkMel5
UACC257 = tested on: UACC257
UACC62 = tested on: UACC62
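Note: cell number obtained by counting DAPI-stained nuclei in high-throughput microscope images with image analysis software, screen run in 1,536-well plates.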

Cn1nnc2c(C(N)=O)ncn2c1=O [temozolomide] + O=C(Nc1cccc(Cl)c1)Nc1ncc(CCNc2ncnc3ccsc23)s1 [SNS314] (first compound 2 µM, partner dose 0.0008 µM)
cell count (MZ2-MEL): 90.2% | cell count (MeWo): 112% | cell count (RPMI7951): 95.9% | cell count (RVH-421): 74.4% | cell count (SkMel28): 73.2% | cell count (SkMel2): 108% | cell count (SkMel30): 105% | cell count (SkMel5): 94.7% | cell count (UACC257): 88.8% | cell count (UACC62): 83.6%

O=C(Nc1cc(C(F)(F)F)cc(C(F)(F)F)c1)c1cc(Cl)ccc1O + O=C(CCCCCCC(=O)Nc1ccccc1)NO [vorinostat] (first compound 0.016 µM, partner dose 0.08 µM)
cell count (MZ2-MEL): 100% | cell count (MeWo): 87.2% | cell count (RPMI7951): 90.5% | cell count (RVH-421): 80.3% | cell count (SkMel28): 79.5% | cell count (SkMel2): 89% | cell count (SkMel30): 104% | cell count (SkMel5): 82.2% | cell count (UACC257): 79.8% | cell count (UACC62): 87%

O=C(Nc1cc(C(F)(F)F)cc(C(F)(F)F)c1)c1cc(Cl)ccc1O + CC(C)CCN1c2nc(Nc3cc(F)c(O)c(F)c3)ncc2N(C)C(=O)C1C [BID1870] (first compound 0.016 µM, partner dose 0.2 µM)
cell count (MZ2-MEL): 98.5% | cell count (MeWo): 90.6% | cell count (RPMI7951): 83.6% | cell count (RVH-421): 84% | cell count (SkMel28): 97.4% | cell count (SkMel2): 104% | cell count (SkMel30): 87.7% | cell count (SkMel5): 99% | cell count (UACC257): 85.2% | cell count (UACC62): 91.3%

O=C(O)[C@@H]1[O][Sb](=[O])([O][Sb]2(=[O])[O][C@H]([C@H](O)CO)[C@H](O)[C@H](C(=O)O)[O]2)[O][C@H]([C@H](O)CO)[C@@H]1O (some centres undefined) [stibogluconate] + OCc1c[nH]c2ccccc12 [Indole-3-carbinol] (first compound 2 µM, partner dose 0.8 µM)
cell count (MZ2-MEL): 92.2% | cell count (MeWo): 94.1% | cell count (RPMI7951): 112% | cell count (RVH-421): 88.9% | cell count (SkMel28): 90.7% | cell count (SkMel2): 102% | cell count (SkMel30): 97% | cell count (UACC62): 93.9%

O=C(O)c1ccc2c(c1)nc(Nc1cccc(Cl)c1)c1ccncc12 + Clc1ccc(Nc2nnc(Cc3ccncc3)c3ccccc23)cc1 [vatalanib] (first compound 0.4 µM, partner dose 2 µM)
cell count (MZ2-MEL): 86.5% | cell count (MeWo): 82.7% | cell count (RPMI7951): 89.2% | cell count (RVH-421): 101% | cell count (SkMel28): 107% | cell count (SkMel2): 98.9% | cell count (SkMel30): 91.3% | cell count (UACC62): 94.2%

O=C(Nc1cc(C(F)(F)F)cc(C(F)(F)F)c1)c1cc(Cl)ccc1O + O=C1NC(=O)/C(=C/c2ccc(-c3ccc(F)cc3O)o2)S1 [AS252424] (first compound 0.016 µM, partner dose 1 µM)
cell count (MZ2-MEL): 106% | cell count (MeWo): 97.5% | cell count (RPMI7951): 101% | cell count (RVH-421): 73.3% | cell count (SkMel28): 84.4% | cell count (SkMel2): 101% | cell count (SkMel30): 94.5% | cell count (SkMel5): 90.3% | cell count (UACC257): 105% | cell count (UACC62): 88.2%

O=C(Nc1cc(C(F)(F)F)cc(C(F)(F)F)c1)c1cc(Cl)ccc1O + Clc1ccc(Nc2nnc(Cc3ccncc3)c3ccccc23)cc1 [vatalanib] (first compound 0.016 µM, partner dose 2 µM)
cell count (MZ2-MEL): 94.6% | cell count (MeWo): 80.9% | cell count (RPMI7951): 92.4% | cell count (RVH-421): 105% | cell count (SkMel28): 108% | cell count (SkMel2): 98% | cell count (SkMel30): 97.7% | cell count (UACC62): 94.5%

O=C(O)[C@@H]1[O][Sb](=[O])([O][Sb]2(=[O])[O][C@H]([C@H](O)CO)[C@H](O)[C@H](C(=O)O)[O]2)[O][C@H]([C@H](O)CO)[C@@H]1O (some centres undefined) [stibogluconate] + CC(C)(C)c1cnc(CSc2cnc(NC(=O)C3CCNCC3)s2)o1 [SNS-032] (first compound 2 µM, partner dose 0.01 µM)
cell count (MZ2-MEL): 98.1% | cell count (MeWo): 96.4% | cell count (RPMI7951): 98.7% | cell count (RVH-421): 74.7% | cell count (SkMel28): 85.8% | cell count (SkMel2): 97.9% | cell count (SkMel30): 108% | cell count (SkMel5): 116% | cell count (UACC257): 107% | cell count (UACC62): 93.4%

O=C(O)c1ccc2c(c1)nc(Nc1cccc(Cl)c1)c1ccncc12 + COc1ccc(Cl)c(Nc2nc3ccccc3nc2NS(=O)(=O)c2cccc(NC(=O)C(C)(C)N)c2)c1 [XL147] (first compound 0.4 µM, partner dose 0.8 µM)
cell count (MZ2-MEL): 87.8% | cell count (MeWo): 86.6% | cell count (RPMI7951): 81.8% | cell count (RVH-421): 106% | cell count (SkMel28): 111% | cell count (SkMel2): 99.6% | cell count (SkMel30): 91.8% | cell count (UACC62): 101%

O=C(O)[C@@H]1[O][Sb](=[O])([O][Sb]2(=[O])[O][C@H]([C@H](O)CO)[C@H](O)[C@H](C(=O)O)[O]2)[O][C@H]([C@H](O)CO)[C@@H]1O (some centres undefined) [stibogluconate] + Cn1nnc2c(C(N)=O)ncn2c1=O [temozolomide] (first compound 2 µM, partner dose 2 µM)
cell count (MZ2-MEL): 93.4% | cell count (MeWo): 112% | cell count (RPMI7951): 85.5% | cell count (RVH-421): 103% | cell count (SkMel28): 77.9% | cell count (SkMel2): 105% | cell count (SkMel30): 77.7% | cell count (UACC62): 79.4%

O=C(Nc1cc(C(F)(F)F)cc(C(F)(F)F)c1)c1cc(Cl)ccc1O + O=C(/C=C/c1cccnc1)NCCCCC1CCN(C(=O)c2ccccc2)CC1 [FK866] (first compound 0.016 µM, partner dose 0.01 µM)
cell count (MZ2-MEL): 62.6% | cell count (MeWo): 91.1% | cell count (RPMI7951): 94.3% | cell count (RVH-421): 89.4% | cell count (SkMel28): 97% | cell count (SkMel2): 82.2% | cell count (SkMel30): 112% | cell count (UACC62): 98.3%

O=C(Nc1cc(C(F)(F)F)cc(C(F)(F)F)c1)c1cc(Cl)ccc1O + Cc1cc(Nc2cc(N3CCN(C)CC3)nc(/C=C/c3ccccc3)n2)n[nH]1 [ENMD2076] (first compound 0.016 µM, partner dose 0.04 µM)
cell count (MZ2-MEL): 103% | cell count (MeWo): 105% | cell count (RPMI7951): 112% | cell count (RVH-421): 82.9% | cell count (SkMel28): 84.4% | cell count (SkMel2): 99.9% | cell count (SkMel30): 86% | cell count (UACC62): 100%

O=C(Nc1cc(C(F)(F)F)cc(C(F)(F)F)c1)c1cc(Cl)ccc1O + COCC[n+]1c2c(n(Cc3cnccn3)c1C)C(=O)c1ccccc1C2=O [YM155] (first compound 0.016 µM, partner dose 0.0004 µM)
cell count (MZ2-MEL): 52.5% | cell count (MeWo): 112% | cell count (RPMI7951): 94.5% | cell count (RVH-421): 73.4% | cell count (SkMel28): 103% | cell count (SkMel2): 94% | cell count (SkMel30): 90.1% | cell count (UACC62): 106%

O=C(O)[C@@H]1[O][Sb](=[O])([O][Sb]2(=[O])[O][C@H]([C@H](O)CO)[C@H](O)[C@H](C(=O)O)[O]2)[O][C@H]([C@H](O)CO)[C@@H]1O (some centres undefined) [stibogluconate] + O=C(Nc1cccc(Cl)c1)Nc1ncc(CCNc2ncnc3ccsc23)s1 [SNS314] (first compound 2 µM, partner dose 0.0008 µM)
cell count (MZ2-MEL): 109% | cell count (MeWo): 105% | cell count (RPMI7951): 118% | cell count (RVH-421): 123% | cell count (SkMel28): 104% | cell count (SkMel2): 110% | cell count (SkMel30): 94.8% | cell count (SkMel5): 108% | cell count (UACC257): 99.1% | cell count (UACC62): 87.5%
